From the supplement of paper PMC10126150
Sequences with one replicate were seen in a single cluster, so their values are uncertain.

Each sequence was assayed on ATP (assay: switch fluorescence ratio, 500 uM ATP over buffer (Cy3 cluster intensity, sum of 5 cycles each) (fold (ratio)); higher = stronger signal-on switching upon ATP binding; sequences stand for … in TCGTCGGCAGCGTCAGATGTGTATAAGAGACAGTTTTTTTTTTTTTTTTTTTTTTTTT…TC). Details: aptamer strand: ATP DNA aptamer (quencher-CACCTGGGGGAGTATTGCGGAGGAAGG + anchor), 100 nM annealed; ATP concentration: 500 uM; one replicate.
Outline: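 Exposure to 500 uM ATP lasted 15 min at 22 °C before imaging, and a selection-buffer image was taken beforehand, for Cy3-labelled switching-strand clusters on a modified Illumina MiSeq flow-cell annealed to 100 nM quencher-labelled ATP aptamer. Five buffer/ATP cycles were run with NaOH stripping and re-annealing between them. The fluorescence ratio per cluster is summed target-cycle over summed buffer-cycle Cy3 intensity, averaged per switch-domain sequence. Clusters outside 100-1000 RFU were excluded.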
TGTGGCGCCC was tested, and the switch fluorescence ratio was 0.955. TGTGGTACTT was tested, and the switch fluorescence ratio was 0.954. Sequence TGTGGTTACT has a switch fluorescence ratio of 0.986. Work on TGTGTATTAT yielded a switch fluorescence ratio of 1.23. For TGTGTCACG, the switch fluorescence ratio was 1.01. In the case of TGTGTCACTT, the switch fluorescence ratio was 0.978. TGTGTCCGCT showed a switch fluorescence ratio of 1.03. For TGTGTCTGT, the switch fluorescence ratio was 0.988. Work on TGTGTGAGG yielded a switch fluorescence ratio of 1.03. TGTGTGCAG gave a switch fluorescence ratio of 1. In the case of TGTGTGTGG, the switch fluorescence ratio was 1.06. TGTGTTACG showed a switch fluorescence ratio of 1.01. TGTGTTCGTT gave a switch fluorescence ratio of 0.992. TGTGTTGGAA gave a switch fluorescence ratio of 0.949. With TGTGTTGT the switch fluorescence ratio was 0.972. Work on TGTGTTGTTA yielded a switch fluorescence ratio of 0.985. Sequence TGTGTTTAGA has a switch fluorescence ratio of 1.01. With TGTGTTTCAC the switch fluorescence ratio was 0.999. With TGTGTTTGTA the switch fluorescence ratio was 0.998. TGTTAAGAT was tested, and the switch fluorescence ratio was 0.996. With TGTTAATTAT the switch fluorescence ratio was 1.01. In the case of TGTTACGTGC, the switch fluorescence ratio was 1.03. TGTTACTCTA gave a switch fluorescence ratio of 1.07. For TGTTAGGACC, the switch fluorescence ratio was 1.02. In the case of TGTTAGGAGG, the switch fluorescence ratio was 1.04. TGTTAGTT gave a switch fluorescence ratio of 0.984. Work on TGTTATAAGG yielded a switch fluorescence ratio of 1.01. For TGTTATTTTA, the switch fluorescence ratio was 1. With TGTTCAAGGT the switch fluorescence ratio was 0.987. TGTTCATCTG showed a switch fluorescence ratio of 1.01. With TGTTCATTCT the switch fluorescence ratio was 0.997. With TGTTCCCGGC the switch fluorescence ratio was 1.03. TGTTCGAG gave a switch fluorescence ratio of 1.01. TGTTCGAGTT was tested, and the switch fluorescence ratio was 0.949. With TGTTCTATGC the switch fluorescence ratio was 1.01. TGTTGACATG showed a switch fluorescence ratio of 0.988. With TGTTGAGGGA the switch fluorescence ratio was 0.926. In the case of TGTTGCAACT, the switch fluorescence ratio was 0.995. For TGTTGCTTGT, the switch fluorescence ratio was 0.998. For TGTTGGCTCA, the switch fluorescence ratio was 0.985. Sequence TGTTGGGGCC has a switch fluorescence ratio of 1.07. TGTTGTAT was tested, and the switch fluorescence ratio was 1. For TGTTGTCACA, the switch fluorescence ratio was 1.01. Work on TGTTGTTCGT yielded a switch fluorescence ratio of 0.998. Work on TGTTGTTGG yielded a switch fluorescence ratio of 1.03. With TGTTTACTGT the switch fluorescence ratio was 1.04. For TGTTTAGCGG, the switch fluorescence ratio was 0.986. Sequence TGTTTCAGTC has a switch fluorescence ratio of 0.981. Sequence TGTTTCATGT has a switch fluorescence ratio of 1.01. TGTTTCGGCT gave a switch fluorescence ratio of 0.98. TGTTTCTGGC showed a switch fluorescence ratio of 1.03. TGTTTGAGGA gave a switch fluorescence ratio of 0.983. TGTTTGCCTA was tested, and the switch fluorescence ratio was 0.984. In the case of TGTTTGGC, the switch fluorescence ratio was 0.889. In the case of TGTTTGGCAA, the switch fluorescence ratio was 1.01. TGTTTGGTCT was tested, and the switch fluorescence ratio was 1.02. TGTTTTCTAT showed a switch fluorescence ratio of 1.01. With TGTTTTGGTA the switch fluorescence ratio was 0.99. For TGTTTTTGCG, the switch fluorescence ratio was 0.913. With TTAAAAACGC the switch fluorescence ratio was 1.03. In the case of TTAAACACCG, the switch fluorescence ratio was 1.1. TTAAACCAGT showed a switch fluorescence ratio of 0.966. With TTAAACGGCT the switch fluorescence ratio was 1.03. Sequence TTAAACTGCG has a switch fluorescence ratio of 1.03. TTAAAGTCTA showed a switch fluorescence ratio of 0.938. With TTAAATCC the switch fluorescence ratio was 1.03. Work on TTAAATTAAG yielded a switch fluorescence ratio of 0.964. For TTAAATTCAC, the switch fluorescence ratio was 1.07. TTAACAATGG was tested, and the switch fluorescence ratio was 1.01. TTAACACTC was tested, and the switch fluorescence ratio was 1.02. With TTAACACTCT the switch fluorescence ratio was 0.948. Work on TTAACCCCTC yielded a switch fluorescence ratio of 1.11. In the case of TTAACGACAG, the switch fluorescence ratio was 1.04. Sequence TTAACGAGGC has a switch fluorescence ratio of 1.05. TTAACTGTGT gave a switch fluorescence ratio of 0.926. Sequence TTAACTTCTA has a switch fluorescence ratio of 0.981. Work on TTAAGAATGA yielded a switch fluorescence ratio of 0.968. TTAAGAGCTG was tested, and the switch fluorescence ratio was 1.02. Work on TTAAGATTCA yielded a switch fluorescence ratio of 0.974. Sequence TTAAGCCAGT has a switch fluorescence ratio of 0.991. In the case of TTAAGCGCTT, the switch fluorescence ratio was 0.985. With TTAAGGAAAG the switch fluorescence ratio was 1.29. In the case of TTAAGGAATA, the switch fluorescence ratio was 0.944. For TTAAGTAAG, the switch fluorescence ratio was 1.03. With TTAAGTCGGG the switch fluorescence ratio was 0.983. Sequence TTAAGTCTAG has a switch fluorescence ratio of 0.998. TTAAGTCTGG showed a switch fluorescence ratio of 0.96. TTAAGTTCCG gave a switch fluorescence ratio of 1.05. In the case of TTAAGTTTGC, the switch fluorescence ratio was 0.97. For TTAATACCTC, the switch fluorescence ratio was 1.05. Work on TTAATACCTG yielded a switch fluorescence ratio of 1.04. Sequence TTAATACGTC has a switch fluorescence ratio of 0.99. For TTAATATTGC, the switch fluorescence ratio was 1.03. Work on TTAATCAGAA yielded a switch fluorescence ratio of 0.96. TTAATCGGG gave a switch fluorescence ratio of 1.03. With TTAATGAACT the switch fluorescence ratio was 1.02. TTAATGAGTC showed a switch fluorescence ratio of 1.04. TTAATGTCA gave a switch fluorescence ratio of 0.988. Sequence TTAATTCC has a switch fluorescence ratio of 1.03. TTACAGGAAA gave a switch fluorescence ratio of 1.05.
